± gives the standard deviation of the averaged measurements. Over roughly 4,100 sequences, “relative kcat/Km (krel) vs genomic leader AAAGAU” has its median near 1.7; the highest 2% begin near 6.5. The entries are a selection whose mix differs from that of the whole data set.

For the experiment, the target named is T1, E. coli RNase P holoenzyme (M1 P RNA + rnpA protein) (UniProt P0A7Y8).
T1 sequence: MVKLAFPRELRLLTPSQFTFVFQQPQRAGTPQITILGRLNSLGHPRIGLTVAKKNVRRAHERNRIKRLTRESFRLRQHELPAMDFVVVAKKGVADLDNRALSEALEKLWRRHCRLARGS
The experiment can be described thus: relative kcat/Km (krel) vs genomic leader AAAGAU (relative (reference leader = 1)); higher = faster RNase P cleavage. The gist of the method: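 Under multiple-turnover conditions at 37 °C, a precursor tRNA-Met pool randomized at leader positions −6 to −1 was processed by E. coli RNase P holoenzyme (P RNA plus C5 protein) in 50 mM Tris-HCl pH 8, 100 mM NaCl, 17.5 mM MgCl2. The remaining precursor was gel-purified at ~5–30% conversion, then converted to cDNA libraries and Illumina-sequenced. Relative kcat/Km (krel) came from read ratios by internal competition kinetics, normalised to the genomic leader, with two technical replicates averaged.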

Where [1] appears, read: fraction of substrate reacted: ~26-29% (28.66% repeat 1, 26.4% repeat 2).
[2] abbreviates: fraction of substrate reacted: ~9-10% (9.79% repeat 1, 9.1% repeat 2).
Where [3] appears, read: fraction of substrate reacted: ~13-16% (15.68% repeat 1, 13.17% repeat 2).

CCCGGT: the “relative kcat/Km” value under setting [1] was determined as 1.83 ± 1.5.
For ATCGAC, the “relative kcat/Km” value reads like this: under setting [2], 3.59 ± 0.99; under setting [3], 4.75 ± 0.93; under setting [1], 6.92 ± 2.
Take ACACGT: under setting [2], the “relative kcat/Km” value was determined as 0.923 ± 0.34.
On to GATCCG, for which the “relative kcat/Km” value reads like this: under setting [3], 0.5 ± 0.42; under setting [1], 0.972 ± 0.15.
GATCCT: the “relative kcat/Km” value runs as follows: under setting [2], 1 ± 0.31; under setting [3], 2.073 ± 0.0024; under setting [1], 2.32 ± 0.89.
Consider CGACGT, for which the “relative kcat/Km” value reads like this: under setting [3], 2.25 ± 1.1; under setting [1], 2.36 ± 1.5.
As to GATATT, the “relative kcat/Km” value came to 1.6 ± 0.053 under setting [2], 1.73 ± 0.22 under setting [3] and 3.18 ± 1.4 under setting [1].
As to CCTACT, the “relative kcat/Km” value runs as follows: under setting [2], 1.32 ± 0.44; under setting [1], 1.47 ± 0.11.
GGCATA: the “relative kcat/Km” value is, setting by setting: under setting [2], 2.07 ± 0.64; under setting [3], 1.92 ± 0.11; under setting [1], 2.28 ± 1.

Values taken from the supplement of paper PMC9433436.
